From the supplement of paper PMC4967469
pIC50: −log10 of the molar value. The IC50 comes from the fitted curve, where viability falls to half of the control; fits outside the tested doses are given as limits. AUC is the area under the same curve over the 256-fold range up to the top dose, as a fraction; the more sensitive the line, the further below 1. For some assays here: An inferred top dose comes from the curve model; the source does not state it. For some assays here: Where an entry number is given, a second screen of the drug exists; the two often differ.

How the values were obtained:
Assay in all cases: Viability of human cancer cell lines after 72 h of drug (GDSC screen)
Thapsigargin = compound: C/C=C(/C)C(=O)O[C@H]1C(C)=C2[C@H]([C@@H]1OC(=O)CCCCCCC)[C@@](C)(OC(C)=O)C[C@H](OC(=O)CCC)[C@@]1(O)[C@H]2OC(=O)[C@@]1(C)O [Thapsigargin]; conditions: top dose 0.512 µM; top dose inferred
Experimental: (§1)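 Human cancer cell lines in 384-well plates, medium with 10% serum, drug for 72 h over a 256-fold dose range (nine 2-fold or five 4-fold steps up to the top dose). Adherent lines were fixed and stained with the nucleic acid dye Syto60, suspension lines read with resazurin; signal relative to control wells, capped at 0 and 100%. One two-parameter sigmoid per drug and line, fitted in a mixed model over all curves with the slope shared within a line.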

QL-X-138 = compound: C=CC(=O)Nc1cc(-n2c(=O)ccc3cnc4ccc(-c5cn[nH]c5)cc4c32)ccc1C [QL-X-138]; conditions: top dose 10.24 µM; top dose inferred
Experimental: as §1

GSK269962A = compound: CCn1c(-c2nonc2N)nc2cnc(Oc3cccc(NC(=O)c4ccc(OCCN5CCOCC5)cc4)c3)cc21 [GSK269962A]; conditions: top dose inferred
Experimental: as §1

MPS-1-IN-1 = compound: COc1cc(N2CCC(O)CC2)ccc1Nc1cc(Nc2ccccc2S(=O)(=O)C(C)C)c2cc[nH]c2n1 [MPS-1-IN-1]; conditions: top dose 20 µM; top dose inferred
Experimental: as §1

(5Z)-7-Oxozeaenol = compound: COc1cc(O)c2c(c1)/C=C/C[C@H](O)[C@H](O)C(=O)/C=C\C[C@H](C)OC2=O [(5Z)-7-Oxozeaenol]; conditions: top dose 10 µM; top dose inferred
Experimental: as §1

CP466722 = compound: COc1cc2ncnc(-n3nc(-c4ccccn4)nc3N)c2cc1OC [CP466722]; conditions: top dose 16 µM; top dose inferred
Experimental: as §1

Zibotentan = compound: COc1nc(C)cnc1NS(=O)(=O)c1cccnc1-c1ccc(-c2nnco2)cc1 [Zibotentan]; conditions: top dose 20 µM; top dose inferred
Experimental: as §1

CMK = compound: Cc1ccc(-c2c(C(=O)CCl)n(CCCO)c3ncnc(N)c23)cc1 [CMK]; conditions: top dose 4 µM; top dose inferred
Experimental: as §1

ABT-869 = compound: Cc1ccc(F)c(NC(=O)Nc2ccc(-c3cccc4[nH]nc(N)c34)cc2)c1 [ABT-869]; conditions: top dose 1.024 µM; top dose inferred
Experimental: as §1

CHIR-99021 = compound: Cc1cnc(-c2cnc(NCCNc3ccc(C#N)cn3)nc2-c2ccc(Cl)cc2Cl)[nH]1 [CHIR-99021]
Experimental: as §1

KU-55933 = compound: O=c1cc(-c2cccc3c2Sc2ccccc2S3)oc(N2CCOCC2)c1 [KU-55933]; conditions: top dose 10 µM
Experimental: as §1

ABT-888 = compound: C[C@]1(c2nc3c(C(N)=O)cccc3[nH]2)CCCN1 [ABT-888]; conditions: top dose 5 µM; top dose inferred
Experimental: as §1

[1] = top dose 2.5 µM, screen: GDSC drug entry 127
[2] = top dose 5 µM, screen: GDSC drug entry 1192
[3] = top dose 2.56 µM, screen: GDSC drug entry 154
[4] = top dose 10 µM, screen: GDSC drug entry 1241, top dose inferred

LB996-RCC (kidney, adherent)
AUC (Thapsigargin): 0.51
pIC50 (Thapsigargin): 7.47
AUC (QL-X-138): 0.965
pIC50 (QL-X-138): < 4.99
AUC (GSK269962A; [1]): 0.9
pIC50 (GSK269962A; [1]): < 5.60
AUC (GSK269962A; [2]): 0.766
pIC50 (GSK269962A; [2]): 5.67
AUC (MPS-1-IN-1): 0.981
pIC50 (MPS-1-IN-1): < 4.70
AUC ((5Z)-7-Oxozeaenol): 0.749
pIC50 ((5Z)-7-Oxozeaenol): 5.43
AUC (CP466722): 0.967
pIC50 (CP466722): < 4.80
AUC (Zibotentan): 0.983
pIC50 (Zibotentan): < 4.70
AUC (CMK): 0.981
pIC50 (CMK): < 5.40
AUC (ABT-869): 0.976
pIC50 (ABT-869): < 5.99
AUC (CHIR-99021; [3]): 0.912
pIC50 (CHIR-99021; [3]): < 5.59
AUC (CHIR-99021; [4]): 0.738
pIC50 (CHIR-99021; [4]): 5.47
AUC (KU-55933): 0.979
pIC50 (KU-55933): < 5.00

LC-2-ad (lung adenocarcinoma, adherent)
AUC (Thapsigargin): 0.207
pIC50 (Thapsigargin): 8.37
AUC (QL-X-138): 0.706
pIC50 (QL-X-138): 5.61
AUC (GSK269962A; [1]): 0.97
pIC50 (GSK269962A; [1]): < 5.60
AUC (GSK269962A; [2]): 0.911
pIC50 (GSK269962A; [2]): < 5.30
AUC (MPS-1-IN-1): 0.827
pIC50 (MPS-1-IN-1): 4.90
AUC ((5Z)-7-Oxozeaenol): 0.841
pIC50 ((5Z)-7-Oxozeaenol): 5.14
AUC (CP466722): 0.691
pIC50 (CP466722): 5.46
AUC (Zibotentan): 0.973
pIC50 (Zibotentan): < 4.70
AUC (CMK): 0.741
pIC50 (CMK): 5.90
AUC (ABT-869): 0.948
pIC50 (ABT-869): < 5.99
AUC (CHIR-99021; [3]): 0.985
pIC50 (CHIR-99021; [3]): < 5.59
AUC (CHIR-99021; [4]): 0.928
pIC50 (CHIR-99021; [4]): < 5.00
AUC (KU-55933): 0.953
pIC50 (KU-55933): < 5.00

LNCaP-Clone-FGC (prostate, adherent)
AUC (Thapsigargin): 0.526
pIC50 (Thapsigargin): 7.42
AUC (QL-X-138): 0.463
pIC50 (QL-X-138): 6.30
AUC (GSK269962A; [1]): 0.983
pIC50 (GSK269962A; [1]): < 5.60
AUC (GSK269962A; [2]): 0.933
pIC50 (GSK269962A; [2]): < 5.30
AUC (MPS-1-IN-1): 0.932
pIC50 (MPS-1-IN-1): < 4.70
AUC ((5Z)-7-Oxozeaenol): 0.851
pIC50 ((5Z)-7-Oxozeaenol): 5.03
AUC (CP466722): 0.762
pIC50 (CP466722): 5.19
AUC (Zibotentan): 0.947
pIC50 (Zibotentan): < 4.70
AUC (CMK): 0.962
pIC50 (CMK): < 5.40
AUC (ABT-869): 0.958
pIC50 (ABT-869): < 5.99
AUC (CHIR-99021; [3]): 0.978
pIC50 (CHIR-99021; [3]): < 5.59
AUC (CHIR-99021; [4]): 0.959
pIC50 (CHIR-99021; [4]): < 5.00
AUC (KU-55933): 0.984
pIC50 (KU-55933): < 5.00

LOXIMVI (melanoma, semi-adherent)
AUC (Thapsigargin): 0.184
pIC50 (Thapsigargin): 8.38
AUC (QL-X-138): 0.857
pIC50 (QL-X-138): 5.16
AUC (GSK269962A; [1]): 0.968
pIC50 (GSK269962A; [1]): < 5.60
AUC (GSK269962A; [2]): 0.805
pIC50 (GSK269962A; [2]): 5.66
AUC (MPS-1-IN-1): 0.912
pIC50 (MPS-1-IN-1): < 4.70
AUC ((5Z)-7-Oxozeaenol): 0.188
pIC50 ((5Z)-7-Oxozeaenol): 7.08
AUC (CP466722): 0.899
pIC50 (CP466722): < 4.80
AUC (Zibotentan): 0.989
pIC50 (Zibotentan): < 4.70
AUC (CMK): 0.895
pIC50 (CMK): 5.41
AUC (ABT-869): 0.987
pIC50 (ABT-869): < 5.99
AUC (CHIR-99021; [3]): 0.717
pIC50 (CHIR-99021; [3]): 6.22
AUC (CHIR-99021; [4]): 0.966
pIC50 (CHIR-99021; [4]): < 5.00
AUC (KU-55933): 0.953
pIC50 (KU-55933): < 5.00

MOLM-13 (acute myeloid leukaemia, suspension)
AUC (Thapsigargin): 0.375
pIC50 (Thapsigargin): 7.83
AUC (GSK269962A; [1]): 0.791
pIC50 (GSK269962A; [1]): 5.98
AUC (GSK269962A; [2]): 0.755
pIC50 (GSK269962A; [2]): 5.80
AUC (MPS-1-IN-1): 0.776
pIC50 (MPS-1-IN-1): 5.13
AUC ((5Z)-7-Oxozeaenol): 0.081
pIC50 ((5Z)-7-Oxozeaenol): > 7.41
AUC (CP466722): 0.393
pIC50 (CP466722): 6.28
AUC (Zibotentan): 0.969
pIC50 (Zibotentan): < 4.70
AUC (ABT-888): 0.97
pIC50 (ABT-888): < 5.30
AUC (CMK): 0.805
pIC50 (CMK): 5.73
AUC (CHIR-99021; [3]): 0.981
pIC50 (CHIR-99021; [3]): < 5.59
AUC (CHIR-99021; [4]): 0.983
pIC50 (CHIR-99021; [4]): < 5.00
AUC (KU-55933): 0.963
pIC50 (KU-55933): < 5.00
